The supplement of paper PMC10369915
The list shows a part of the results. Rule as the data show it: active = 3.2 or more and inactive = the rest. Most of these values are background signal.

B1: DNB2_ADE07_180 (peptide)
chain: MAVLMERYRLDNDLR
B2: DNB2_ADE04_174 (peptide)
chain: MNMLMERYRVESDLK
B3: DNB2_ADE41_142 (peptide)
chain: MNVLMEKYHVENDEK
B4: DNB2_ADE40_141 (peptide)
chain: MIKLMEKYHVEAEEK
B5: SPEN_Y632_YF (peptide)
chain: NQDRTYFESVR
B6: DNB2_ADE12_150 (peptide)
chain: MAMLMEKYHVDHDER
B7: SHUT_ADE41_334_YA (peptide)
chain: KIEESLHYAFRHGAV
B8: DNB2_ADE02_195 (peptide)
chain: ARALMDKYHVDNDLK

target: SHP2 C-SH2 domain E139D; assay: enrichment score (SH2-bound / input frequency) (ratio); bacterial display of known human phosphotyrosine sites (pTyr-Var adds point mutants) read by sequencing; higher = stronger binding; tyrosines were phosphorylated by kinases first; conditions: peptide library: Human pTyr
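Also: displayed peptides selected on beads carrying the immobilized SH2 domain, with library peptides lacking any tyrosine serving as negative controls.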

Binder | enrichment score
B1 | inactive: 0.936
B2 | inactive: 0.871
B3 | inactive: 0.612
B4 | inactive: 1.56
B6 | inactive: 1.15
B7 | inactive: 1.23
B8 | inactive: 0.837

target: SHP2 C-SH2 domain wild-type; assay: as above; conditions: peptide library: Human pTyr

Binder | enrichment score
B1 | inactive: 0.749
B2 | inactive: 0.646
B3 | inactive: 0.921
B4 | inactive: 1.61
B6 | inactive: 1.11
B7 | inactive: 1.36
B8 | inactive: 0.594

target: SHP2 N-SH2 domain L43F; assay: as above; conditions: peptide library: Human pTyr

Binder | enrichment score
B1 | inactive: 0.723
B2 | inactive: 0.743
B3 | inactive: 1.03
B4 | inactive: 1.46
B6 | inactive: 1.04
B7 | inactive: 0.951
B8 | inactive: 0.741

target: SHP2 N-SH2 domain T42A; assay: as above; conditions: peptide library: Human pTyr

Binder | enrichment score
B1 | inactive: 0.667
B2 | inactive: 0.74
B3 | inactive: 0.738
B4 | inactive: 1.26
B6 | inactive: 0.846
B7 | inactive: 1.01
B8 | inactive: 0.778

target: SHP2 N-SH2 domain T52S; assay: as above; conditions: peptide library: Human pTyr

Binder | enrichment score
B1 | inactive: 0.783
B2 | inactive: 0.725
B3 | inactive: 0.818
B4 | inactive: 1.47
B6 | inactive: 0.88
B7 | inactive: 0.937
B8 | inactive: 0.911

target: SHP2 N-SH2 domain wild-type; assay: as above; conditions: peptide library: Human pTyr

Binder | enrichment score
B1 | inactive: 0.813
B2 | inactive: 1.03
B3 | inactive: 1.44
B4 | inactive: 1.8
B6 | inactive: 1.17
B7 | inactive: 1.29
B8 | inactive: 0.752

target: SHP2 C-SH2 domain E139D; assay: as above; conditions: peptide library: pTyr-Var

Binder | enrichment score
B5 | inactive: 0.66

target: SHP2 C-SH2 domain wild-type; assay: as above; conditions: peptide library: pTyr-Var

Binder | enrichment score
B5 | inactive: 0.678

target: SHP2 N-SH2 domain L43F; assay: as above; conditions: peptide library: pTyr-Var

Binder | enrichment score
B5 | inactive: 0.736

target: SHP2 N-SH2 domain T42A; assay: as above; conditions: peptide library: pTyr-Var

Binder | enrichment score
B5 | inactive: 0.586

target: SHP2 N-SH2 domain T52S; assay: as above; conditions: peptide library: pTyr-Var

Binder | enrichment score
B5 | inactive: 0.734

target: SHP2 N-SH2 domain wild-type; assay: as above; conditions: peptide library: pTyr-Var

Binder | enrichment score
B5 | inactive: 0.944
